Reference: PubChem BioAssay AID504845 (National Center for Advancing Translational Sciences (NCATS), 2011)
Among all 390,000 compounds or so, about 150 (0.038%) were called active. The inconclusive results got no clear call from the source; some entries with a clear call stand among them for comparison. Calls come from the whole dose curve; as a rule, active = well fitted inhibition curve with a large enough effect; inconclusive = small, poorly fitted or top-dose-only effect; inactive = no such curve, though single readings can be large or run the other way. A potency beside an inconclusive call is a rough fit, not a confirmed value.

Each molecule was assayed against Regulator of G-protein signaling 4 (Homo sapiens) (UniProt P49798) (assay: Inhibitors of Regulator of G Protein Signaling (RGS) 4: qHTS). Details: Transcreener GDP fluorescence polarization, RGS4-accelerated GTP hydrolysis; series mostly up to 114 µM; activity change, negative = inhibition: at the top concentration.
Outline: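 MLSMR compounds (23 nl, pin-transferred) preincubated 10 min at room temperature with a 500nM (2x) first reagent, then RGS4 at 900nM (2x) plus Transcreener GDP mix added; fluorescence polarization (620/688 nm) read before and after 90 min at 30 °C.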
% is set by controls: 0 for no effect and ±100 for the full control effect; potency is the fitted concentration of half-maximal effect; tags give direction and shape of the fitted curve.
Note: nearly all actives have a fitted effect of over 75% in size.

Sequence of UniProt P49798 (P49798 whole entry, looked up): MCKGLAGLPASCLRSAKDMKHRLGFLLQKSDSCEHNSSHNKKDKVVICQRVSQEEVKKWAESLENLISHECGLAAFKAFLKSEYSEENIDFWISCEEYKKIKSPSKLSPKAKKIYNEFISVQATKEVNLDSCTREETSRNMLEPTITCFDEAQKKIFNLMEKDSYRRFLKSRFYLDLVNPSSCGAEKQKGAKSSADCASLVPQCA

Row | SMILES | Potency | activity change, negative = inhibition
1 | CCOC(=O)C1=C(O)c2ccccc2C(=O)/C1=C\c1ccc(CC)cc1 | inconclusive: 35.5 µM [inhibitor, partial curve, poor fit] | 
2 | CC(C)(C)c1cc(NC(=O)Nc2ccc(Cl)cc2Cl)no1 |  | inactive: -37.8%
3 | CCc1nc(SCC(=O)Nc2ccccc2OC)n[nH]1 | inconclusive: 89.1 µM [inhibitor, single point] | 
4 | Cc1nn(-c2ccccn2)c2c1C(=O)C(Br)CC2 (stereo not drawn) | inconclusive: 50.1 µM [inhibitor, partial curve, poor fit] | 
5 | Cn1c(=O)c2c(ncn2CC(=O)N/N=C/C=C/c2ccco2)n(C)c1=O | inconclusive: 28.2 µM [inhibitor, full curve, poor fit] | 
6 | O=C(/C=C/c1ccco1)NCC(=O)N/N=C/c1ccc([N+](=O)[O-])cc1 | inconclusive: 35.5 µM [inhibitor, full curve, poor fit] | 
7 | CCn1c(-c2ccccc2)csc1=Nc1ccc(S(=O)(=O)O)cc1 | inconclusive: 89.1 µM [inhibitor, single point] | 
8 | S=C(c1ccc(-c2ccccc2)o1)N1CCCCC1 | inconclusive: 50.1 µM [inhibitor, partial curve, poor fit] | 
9 | COc1cc(NC(=O)c2ccccc2)c(OC)cc1NC(=O)CN1CCCCC1 |  | inactive: 33.8%
10 | O=S(=O)(c1ccc(F)cc1)N1CCN(S(=O)(=O)c2cc(F)ccc2F)CC1 | inconclusive: 31.6 µM [inhibitor, full curve, poor fit] | 
11 | CCN(CC)c1ccc(N=Cc2ccc([N+](=O)[O-])o2)cc1 | inconclusive: 100 µM [inhibitor, partial curve, poor fit] | 
12 | Cn1c(-c2ccccc2O)cc2ccccc21 |  | inactive: -23.6%
13 | CCOC(=O)c1c(-c2ccc(C)o2)csc1NC(=O)CSc1nnc(C)s1 | inconclusive: 28.2 µM [inhibitor, full curve, poor fit] | 
14 | CCCN1CCN(C(=O)Cn2cnc3ccc(S(=O)(=O)N4CCC(C)CC4)cc3c2=O)CC1 | inconclusive: 79.4 µM [inhibitor, single point] | 
15 | COc1cnc(-c2ccccn2)nc1N(C)C |  | inactive: -13.1%
16 | Cc1cccc(Cn2c(=O)n(CCc3ccccc3)c(=O)c3c(C)c(C)sc32)c1 |  | inactive: -3.16%
17 | Cc1cc(C(=O)CSc2nnnn2-c2ccc(O)cc2)c(C)n1C | inconclusive: 70.8 µM [inhibitor, partial curve, poor fit] | 
18 | Cc1[nH]n(-c2ccccc2)c(=O)c1/C=N/N(c1ccccc1)c1ccccc1 | inconclusive: 50.1 µM [inhibitor, partial curve, poor fit] | 
